Several values for one entry are separate records, joined by “and”; a condition that tells them apart may be missing. Identical values can stand only once. The inconclusive results got no clear call from the source; some entries with a clear call stand among them for comparison. For some of these results: Potencies of inconclusive entries are left out as doubtful fits. For some of these results: A note “side channel” means that the fit belongs to a control or component signal, not to the main read-out. Activity calls are given as the source filed them. Unless noted, calls come from the whole dose curve.
Columns and labels:
[1] = molecular target: Estrogen receptor (Homo sapiens) (UniProt P03372); experiment: qHTS assay for small molecule agonists of estrogen receptor alpha signaling (AID 588514); settings: ER-alpha-UAS-bla HEK293, beta-lactamase ratio, 18 h; activation: at 76.8 µM (top of the series), percent of full estradiol response, vehicle zero unless noted; note: nearly all actives have a fitted effect of over 70% in size; note: potency is the fitted concentration of half-maximal effect;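 for activation: 0% = vehicle only and 100% = reference agonist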
Sequence of UniProt P03372 (P03372 whole entry, looked up): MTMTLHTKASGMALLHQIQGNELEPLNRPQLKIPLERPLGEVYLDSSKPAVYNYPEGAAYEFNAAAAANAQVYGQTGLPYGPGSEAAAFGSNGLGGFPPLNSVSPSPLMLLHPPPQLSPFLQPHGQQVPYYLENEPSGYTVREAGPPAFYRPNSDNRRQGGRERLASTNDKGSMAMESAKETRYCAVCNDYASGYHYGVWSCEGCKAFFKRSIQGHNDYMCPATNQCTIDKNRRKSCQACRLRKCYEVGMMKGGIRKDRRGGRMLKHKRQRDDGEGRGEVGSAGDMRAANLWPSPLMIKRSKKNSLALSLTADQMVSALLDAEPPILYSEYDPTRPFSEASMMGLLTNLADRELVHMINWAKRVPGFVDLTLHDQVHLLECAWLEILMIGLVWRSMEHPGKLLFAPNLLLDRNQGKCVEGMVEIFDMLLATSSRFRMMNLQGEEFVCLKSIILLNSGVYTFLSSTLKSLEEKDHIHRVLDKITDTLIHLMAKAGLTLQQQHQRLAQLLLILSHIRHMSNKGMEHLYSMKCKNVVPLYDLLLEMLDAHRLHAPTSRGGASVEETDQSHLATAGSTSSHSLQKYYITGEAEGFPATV
How it was run: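 Efficacy is expressed against 20 nM 17-beta-estradiol (100%) and DMSO basal (0%); EC50 from Hill equation. Assay: beta-lactamase reporter in ER-alpha-UAS-bla HEK 293 cells, 18 h compound incubation, CCF4 detection.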

[2] = molecular target: Peroxisome proliferator-activated receptor gamma (Homo sapiens) (UniProt P37231); experiment: qHTS assay for small molecule antagonists of peroxisome proliferator-activated receptor gamma signaling (AID 588537; active = well fitted inhibition curve with a large enough effect in the signal ratio, with a control signal flat, not every such curve was filed as active; inconclusive = small, poorly fitted or top-dose-only effect, or effect the other way, or a change in a side signal; the % refers to the signal ratio; note: potency is the fitted concentration of half-maximal effect;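 note: reporter cells co-stimulated with 50 nM rosiglitazone agonist during compound treatment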; for activity, negative = inhibition: % of control where 0% means no effect); settings: HEK293 PPARg-UAS-bla, beta-lactamase ratio, antagonist mode; activity, negative = inhibition: at 76.8 µM (top of the series) unless noted
How it was run: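 Antagonist-mode β-lactamase reporter screen run as a titration series. HEK293 PPARγ-UAS-bla cells are stimulated with rosiglitazone (50 nM final) for 16 h, then CCF4 is read at 460/530 nm. Data are scaled between DMSO and rosiglitazone and fitted to the Hill equation.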

[3] = molecular target: Vitamin D3 receptor (Homo sapiens) (UniProt P11473); experiment: qHTS assay for small molecule agonists of vitamin D receptor signaling (AID 588543); settings: HEK293T VDR-UAS-bla, beta-lactamase ratio, 16 h; activation: at 76.8 µM (top of the series);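 note: 0% = DMSO basal and 100% = reference agonist control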
Sequence of UniProt P11473 (P11473 whole entry, looked up): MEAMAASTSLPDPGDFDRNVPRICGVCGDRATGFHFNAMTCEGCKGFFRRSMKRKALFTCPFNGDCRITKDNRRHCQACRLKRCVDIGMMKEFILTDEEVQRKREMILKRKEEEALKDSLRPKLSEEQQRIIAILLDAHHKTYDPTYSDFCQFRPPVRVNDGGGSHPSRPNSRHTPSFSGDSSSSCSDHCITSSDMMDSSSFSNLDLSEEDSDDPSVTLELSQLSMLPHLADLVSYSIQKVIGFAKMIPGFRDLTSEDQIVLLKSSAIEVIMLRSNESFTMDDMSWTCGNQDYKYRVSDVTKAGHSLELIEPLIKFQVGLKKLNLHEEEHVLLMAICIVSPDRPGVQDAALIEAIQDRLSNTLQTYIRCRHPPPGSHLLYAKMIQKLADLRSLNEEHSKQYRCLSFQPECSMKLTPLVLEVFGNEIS
How it was run: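 Measured: β-lactamase reporter activity (CCF4, 405 nm excitation, 460/530 nm emission) in HEK293T VDR-UAS-bla cells after 16 h compound exposure at 37 °C. Normalization against 50 nM 1α,25-dihydroxyvitamin D3 and DMSO; Hill-fit EC50.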

[4] = molecular target: Thyroid hormone receptor beta (Homo sapiens) (UniProt P10828); experiment: qHTS assay for small molecule antagonists of thyroid hormone receptor beta signaling (AID 588547; active = well fitted inhibition curve with a large enough effect in the signal ratio, with a control signal flat, not every such curve was filed as active; inconclusive = small, poorly fitted or top-dose-only effect, or effect the other way, or a change in a side signal; the % refers to the signal ratio; note: potency is the fitted concentration of half-maximal effect;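 for activity change % (negative = inhibition): cells stimulated with 0.4 nM T3 agonist during compound exposure; % is set by controls: 0 for no effect and ±100 for the full control effect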); settings: TR-UAS-bla HEK293, beta-lactamase ratio, antagonist mode, 18 h
Sequence of UniProt P10828 (P10828 whole entry, looked up): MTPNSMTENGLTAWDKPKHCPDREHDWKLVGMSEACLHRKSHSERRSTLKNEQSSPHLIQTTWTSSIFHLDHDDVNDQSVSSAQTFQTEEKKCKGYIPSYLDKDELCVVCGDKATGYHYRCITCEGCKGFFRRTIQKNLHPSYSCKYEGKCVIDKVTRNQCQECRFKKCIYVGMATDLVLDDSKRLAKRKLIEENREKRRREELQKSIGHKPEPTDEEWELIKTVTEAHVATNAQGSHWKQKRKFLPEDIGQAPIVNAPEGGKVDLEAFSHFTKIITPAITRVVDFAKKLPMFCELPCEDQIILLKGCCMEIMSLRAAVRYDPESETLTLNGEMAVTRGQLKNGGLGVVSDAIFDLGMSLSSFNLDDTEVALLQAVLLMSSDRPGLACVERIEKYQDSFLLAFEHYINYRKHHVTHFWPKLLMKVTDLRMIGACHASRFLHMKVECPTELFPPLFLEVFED
How it was run: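 Inhibition of T3-driven (0.4nM final) beta-lactamase reporter activity was measured over 0.59 nM to 92 uM compound after 18 h at 37 C. The cells were GripTite HEK293 TR-UAS-bla in charcoal/dextran-stripped serum, with CCF4 ratio read-out and IC50 from Hill fits.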

[5] = qHTS assay for small molecule agonists of the antioxidant response element (ARE) signaling pathway (AID 651741; active = well fitted activation curve with a large enough effect in the signal ratio; inconclusive = small, poorly fitted or top-dose-only effect, or effect the other way, or a change in a side signal; the % refers to the signal ratio; note: potency is the fitted concentration of half-maximal effect; for activation: % of control where 0% means no effect); settings: HepG2 ARE-bla reporter, beta-lactamase FRET ratio, 16 h; activation: at 96 µM (top of the series) unless noted
How it was run: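 Beta-lactamase reporter under ARE control in HepG2 cells, 2,000 per well, was induced by 16 h compound treatment at 37 C. Read-out was fluorescence from LiveBLAzer B/G FRET substrate after 2 h at room temperature.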

[6] = molecular target: Nuclear receptor subfamily 1 group I member 2 (Rattus norvegicus) (UniProt Q9R1A7); experiment: qHTS assay for small molecule activators of the rat pregnane X receptor (rPXR) signaling pathway (AID 651751; call rule not given here; note: 0% is about no effect); settings: rPXR reporter cells, luciferase (One-Glo), 24 h
Sequence of UniProt Q9R1A7 (Q9R1A7 whole entry, looked up): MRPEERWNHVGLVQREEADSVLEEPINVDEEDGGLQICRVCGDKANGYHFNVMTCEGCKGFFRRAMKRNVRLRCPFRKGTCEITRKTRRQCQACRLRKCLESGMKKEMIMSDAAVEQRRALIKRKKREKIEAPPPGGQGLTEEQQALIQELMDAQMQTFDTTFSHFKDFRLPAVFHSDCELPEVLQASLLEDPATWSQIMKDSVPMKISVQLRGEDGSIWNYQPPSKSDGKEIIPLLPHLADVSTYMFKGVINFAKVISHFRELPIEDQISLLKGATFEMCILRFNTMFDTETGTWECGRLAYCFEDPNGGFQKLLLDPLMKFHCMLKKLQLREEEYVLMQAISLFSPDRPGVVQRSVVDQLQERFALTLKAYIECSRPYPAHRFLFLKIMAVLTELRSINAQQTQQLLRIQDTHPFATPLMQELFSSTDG

[7] = MultiTox-Fluor Cytotoxicity Assay - LYMP1-002 - Dead Cells (AID 960; active = well fitted curve in the direction sought with a large enough effect; inconclusive = small, poorly fitted or top-dose-only effect, or another doubt; inactive = no such curve, though single readings can be large; an effect the other way counts as inactive or inconclusive; note: potency is the fitted concentration of half-maximal effect; nearly all actives have a fitted effect of over 60% in size); settings: LYMP1-002 lymphoblastoid cells, dead-cell protease fluorescence; cytotoxicity (dead cells): at 46.1 µM (top of the series)
How it was run: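 Cells were plated, rested 5 hr, then treated with compound dilution series for 16 hr at 37 C. After adding substrate reagent and 60 min at room temperature, dead-cell protease fluorescence gave concentration-response curves fitted by the Hill equation.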

[8] = Cell Viability - LYMP2-015 (AID 971; active = well fitted curve in the direction sought with a large enough effect; inconclusive = small, poorly fitted or top-dose-only effect, or another doubt; inactive = no such curve, though single readings can be large; an effect the other way counts as inactive or inconclusive;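 note: cells exposed to compound for 24 h; 0% = DMSO only and full effect = 92 µM tetraoctylammonium bromide; nearly all actives have a fitted effect of over 55% in size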)
How it was run: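 Cells are seeded at 2500 per well and incubated 5 hr at 37 C. Compounds are added across a concentration series for 24 hr at 37 C. CellTiter-Glo is added, and luminescence is read after 30 min at room temperature.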

[9] = molecular target: Androgen receptor (Homo sapiens) (UniProt P10275); experiment: qHTS assay for small molecule agonists of androgen receptor signaling (AID 588515; active = well fitted curve in the direction sought with a large enough effect in the signal ratio, with a control signal flat; inconclusive = small, poorly fitted or top-dose-only effect, or effect the other way, or a change in a side signal; inactive = no such curve, though single readings can be large or run the other way; the % refers to the signal ratio; note: potency is the fitted concentration of half-maximal effect; for activation: % is set by controls: 0 for no effect and ±100 for the full control effect); settings: AR-UAS-bla HEK293, beta-lactamase ratio, agonist 16 h; activation: stronger effect = higher value
Sequence of UniProt P10275 (P10275 whole entry, looked up): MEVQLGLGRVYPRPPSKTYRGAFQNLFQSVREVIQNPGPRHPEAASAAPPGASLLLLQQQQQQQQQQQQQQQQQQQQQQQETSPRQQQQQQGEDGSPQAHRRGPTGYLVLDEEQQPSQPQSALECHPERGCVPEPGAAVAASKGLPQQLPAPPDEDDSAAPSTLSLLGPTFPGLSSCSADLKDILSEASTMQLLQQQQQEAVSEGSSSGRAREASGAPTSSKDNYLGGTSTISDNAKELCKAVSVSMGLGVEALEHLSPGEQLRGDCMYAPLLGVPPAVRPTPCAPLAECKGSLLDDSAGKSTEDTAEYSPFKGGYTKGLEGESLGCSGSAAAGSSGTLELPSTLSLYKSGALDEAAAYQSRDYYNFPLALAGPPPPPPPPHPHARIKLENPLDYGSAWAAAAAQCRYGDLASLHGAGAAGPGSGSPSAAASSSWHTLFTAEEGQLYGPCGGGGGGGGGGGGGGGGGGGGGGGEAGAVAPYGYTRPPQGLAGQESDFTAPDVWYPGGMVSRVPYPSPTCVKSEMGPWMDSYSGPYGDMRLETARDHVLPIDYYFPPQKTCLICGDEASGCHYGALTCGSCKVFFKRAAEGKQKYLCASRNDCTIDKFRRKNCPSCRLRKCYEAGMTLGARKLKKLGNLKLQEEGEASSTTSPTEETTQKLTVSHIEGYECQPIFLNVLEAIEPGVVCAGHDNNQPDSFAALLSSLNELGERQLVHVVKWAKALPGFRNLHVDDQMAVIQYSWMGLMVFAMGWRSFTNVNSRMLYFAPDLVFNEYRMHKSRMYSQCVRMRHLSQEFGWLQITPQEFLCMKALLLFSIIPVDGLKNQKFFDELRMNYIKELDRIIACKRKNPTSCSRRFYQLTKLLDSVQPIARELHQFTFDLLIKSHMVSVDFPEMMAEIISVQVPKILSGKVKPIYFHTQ
How it was run: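 Stimulation of an AR-responsive β-lactamase reporter in GripTite HEK293 cells was measured after 16 h compound exposure at 37 °C, via CCF4 fluorescence after 2 h RT. EC50 from Hill fits, normalized to R1881 at 30 nM.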

[10] = molecular target: Bile acid receptor (Homo sapiens) (UniProt Q96RI1); experiment: qHTS assay for small molecule agonists of farnesoid X receptor signaling (AID 588527); settings: HEK293T FXR-UAS-bla, beta-lactamase ratio, 16 h; activation: stronger effect = higher value;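 note: 0% = vehicle basal and 100% = reference agonist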
How it was run: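 Agonist-mode beta-lactamase reporter in GeneBLAzer FXR-UAS-bla HEK293T cells, titration up to 92 uM, 16 h exposure at 37 C, CCF4 fluorescence. Response scaled to DMSO (0%) and 100 uM chenodeoxycholic acid (100%), then Hill-fitted for EC50 and efficacy.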

[11] = molecular target: Peroxisome proliferator-activated receptor delta (Homo sapiens) (UniProt Q03181); experiment: qHTS assay for small molecule antagonists of peroxisome proliferator-activated receptor delta signaling (AID 588535; active = well fitted inhibition curve with a large enough effect in the signal ratio, with a control signal flat, not every such curve was filed as active; inconclusive = small, poorly fitted or top-dose-only effect, or effect the other way, or a change in a side signal; inactive = no such curve, though single readings can be large or run the other way; the % refers to the signal ratio); settings: HEK293T PPARd-UAS-bla, beta-lactamase FRET ratio, 18 h; activity change, negative = inhibition: at 76.7 µM (top of the series) unless noted
Sequence of UniProt Q03181 (Q03181 whole entry, looked up): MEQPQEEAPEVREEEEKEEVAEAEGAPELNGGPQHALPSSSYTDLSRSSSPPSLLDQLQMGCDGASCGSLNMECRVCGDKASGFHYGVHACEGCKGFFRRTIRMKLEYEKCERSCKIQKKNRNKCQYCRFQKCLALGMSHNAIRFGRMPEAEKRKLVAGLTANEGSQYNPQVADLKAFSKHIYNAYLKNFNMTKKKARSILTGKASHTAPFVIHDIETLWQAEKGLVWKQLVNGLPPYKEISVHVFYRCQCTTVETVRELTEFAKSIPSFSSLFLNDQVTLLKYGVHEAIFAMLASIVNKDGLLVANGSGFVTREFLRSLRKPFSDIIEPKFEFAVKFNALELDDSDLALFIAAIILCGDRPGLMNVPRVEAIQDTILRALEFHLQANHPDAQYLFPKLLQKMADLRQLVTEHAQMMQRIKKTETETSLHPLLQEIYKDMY
How it was run: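 Titrations were run on PPAR-delta-UAS-bla HEK293T cells in charcoal/dextran-stripped serum, incubated 18 h at 37 C. CCF4 fluorescence (460/530 nm) after 2 h RT; Hill equation yields IC50 and maximal response.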

[12] = qHTS assay to identify small molecules that stimulate interleukin-8 (IL-8) secretion (AID 651758; active = well fitted activation curve with a large enough effect in the signal ratio; inconclusive = small, poorly fitted or top-dose-only effect, or effect the other way, or a change in a side signal; the % refers to the signal ratio; note: 0% is about no effect); settings: HTRF ratio (665/615); activation: at 92.2 µM (top of the series)
How it was run: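 Secreted IL-8 measured homogeneously by TR-FRET (two labelled anti-IL-8 antibodies, 1-3 h at room temperature) after a 16 h, 37 C compound treatment of THP-1 cells at 2000 cells/well.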

[13] = molecular target: Nuclear receptor ROR-gamma (Homo sapiens) (UniProt P51449); experiment: qHTS assay for small molecule antagonists of the retinoid-related orphan receptor gamma (ROR-gamma) signaling pathway (AID 651802; active = well fitted curve in the direction sought with a large enough effect; inconclusive = small, poorly fitted or top-dose-only effect, or another doubt; inactive = no such curve, though single readings can be large; an effect the other way counts as inactive or inconclusive; note: potency is the fitted concentration of half-maximal effect; nearly all actives have a fitted effect of over 60% in size)
Sequence of UniProt P51449 (P51449 whole entry, looked up): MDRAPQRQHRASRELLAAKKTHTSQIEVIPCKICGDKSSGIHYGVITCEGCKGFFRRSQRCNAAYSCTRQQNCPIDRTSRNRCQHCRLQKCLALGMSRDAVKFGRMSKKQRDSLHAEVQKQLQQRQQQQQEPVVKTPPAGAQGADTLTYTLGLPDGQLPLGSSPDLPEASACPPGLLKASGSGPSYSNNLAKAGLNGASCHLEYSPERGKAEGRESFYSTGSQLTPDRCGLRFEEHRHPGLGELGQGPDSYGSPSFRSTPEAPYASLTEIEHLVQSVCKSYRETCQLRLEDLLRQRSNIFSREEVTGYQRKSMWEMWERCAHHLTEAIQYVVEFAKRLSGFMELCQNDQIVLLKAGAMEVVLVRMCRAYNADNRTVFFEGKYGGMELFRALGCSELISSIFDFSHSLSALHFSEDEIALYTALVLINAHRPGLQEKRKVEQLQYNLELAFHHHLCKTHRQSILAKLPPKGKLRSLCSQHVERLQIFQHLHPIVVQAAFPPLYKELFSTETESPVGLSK
How it was run: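 Steps: cells dispensed; compound or DMSO transferred by pin tool; doxycycline added to induce the ROR response element-driven luciferase; plates held 16hr at 37C; ONE-Glo added and luminescence measured.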

[14] = Cell Viability - LYMP2-022 (AID 987; active = well fitted curve in the direction sought with a large enough effect; inconclusive = small, poorly fitted or top-dose-only effect, or another doubt; inactive = no such curve, though single readings can be large; an effect the other way counts as inactive or inconclusive;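 note: 0% = DMSO alone and full effect = tetraoctylammonium bromide at 92 µM; nearly all actives have a fitted effect of over 55% in size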)
How it was run: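 Cells were seeded at 2500 per well, rested 5 hr at 37 C, and treated with titrated compounds for 24 hr at 37 C. Cellular ATP was then quantified by luciferase luminescence, and AC50 values were derived from Hill-modelled concentration-response curves.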

[15] = molecular target: Androgen receptor (Homo sapiens) (UniProt P10275); experiment: qHTS assay for small molecule antagonists of androgen receptor signaling (AID 588516; active = well fitted curve in the direction sought with a large enough effect in the signal ratio, with a control signal flat, not every such curve was filed as active; inconclusive = small, poorly fitted or top-dose-only effect, or effect the other way, or a change in a side signal; inactive = no such curve, though single readings can be large or run the other way; the % refers to the signal ratio; note: % is set by controls: 0 for no effect and ±100 for the full control effect); settings: AR-UAS-bla HEK293, beta-lactamase ratio, antagonist mode, 16 h; activity change, negative = inhibition: at 76.8 µM (top of the series)
How it was run: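 Cells were plated and incubated 5 h, compounds added in titration, then R1881 (10 nM final) as agonist. After 16 h at 37 C, CCF4 substrate was loaded for 2 h at room temperature and fluorescence measured.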

[16] = molecular target: Bile acid receptor (Homo sapiens) (UniProt Q96RI1); experiment: qHTS assay for small molecule antagonists of farnesoid X receptor signaling (AID 588526); settings: HEK293T FXR-UAS-bla, beta-lactamase ratio, antagonist mode; activity change, negative = inhibition: at 76.7 µM (top of the series); note: % is set by controls: 0 for no effect and ±100 for the full control effect
How it was run: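 Beta-lactamase reporter antagonist mode: HEK293T FXR-UAS-bla cells, titrated compound, CDCA stimulation, 16 h 37 C, CCF4 dye 2 h RT. Data normalized to CDCA 50 uM and DMSO; Hill-fit IC50.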

[17] = molecular target: Thyroid hormone receptor beta (Homo sapiens) (UniProt P10828); experiment: qHTS assay for small molecule agonists of thyroid hormone receptor beta signaling (AID 588545); settings: TR-UAS-bla GripTite HEK 293, beta-lactamase ratio, agonist mode, 18 h; activation: at 76.7 µM, percent of T3 response, DMSO as zero; note: potency is the fitted concentration of half-maximal effect
How it was run: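 In this cell-based screen, titrated compounds act on HEK 293 cells held in medium with 2% charcoal/dextran FBS, NEAA and pyruvate for 18 hrs at 37 C. Responses are expressed relative to T3 (10 nM) as 100% and basal DMSO as 0%.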

[18] = qHTS assay for cell viability of HEK293 cells (AID 743288; active = well fitted curve in the direction sought with a large enough effect; inconclusive = small, poorly fitted or top-dose-only effect, or another doubt; inactive = no such curve, though single readings can be large; an effect the other way counts as inactive or inconclusive; note: % is set by controls: 0 for no effect and ±100 for the full control effect; nearly all actives have a fitted effect of over 50% in size); settings: ATP luminescence (CellTiter-Glo), 18 h; max response: stronger effect = lower value
How it was run: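 HEK293, 18 h, 37 C, ATP luminescence. Cells at 2,000/well were allowed at least 5 h to settle before dosing; CellTiter-Glo developed 30 min at RT.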

[19] = qHTS assay for cell viability of the p53RE-bla HCT-116 cell line (AID 743292; active = well fitted curve in the direction sought with a large enough effect; inconclusive = small, poorly fitted or top-dose-only effect, or another doubt; inactive = no such curve, though single readings can be large; an effect the other way counts as inactive or inconclusive; note: % is set by controls: 0 for no effect and ±100 for the full control effect; nearly all actives have a fitted effect of over 55% in size)
How it was run: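 ATP-based luminescent viability (CellTiter-Glo, 30 min RT) after 16 h compound treatment at 37 C of p53RE-bla HCT-116 cells, seeded at 4,000 cells/well and rested 5 h before dosing.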

[20] = Cell Viability - LYMP1-002 - Assay at 16 hr (AID 948; active = well fitted curve in the direction sought with a large enough effect; inconclusive = small, poorly fitted or top-dose-only effect, or another doubt; inactive = no such curve, though single readings can be large; an effect the other way counts as inactive or inconclusive;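 note: 0% = DMSO alone and full effect = 92 µM tetraoctylammonium bromide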); settings: LYMP1-002 lymphoblastoid cell viability; at 92.2 µM (top of the series)
How it was run: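 In this qHTS, lymphoblastoid LYMP1-002 cells (human) receive compounds for 16 hr at 37 C. Viability is taken from CellTiter-Glo ATP luminescence, and AC50 derives from standard Hill fits.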

[21] = molecular target: Retinoic acid receptor RXR-alpha (Homo sapiens) (UniProt P19793); experiment: qHTS assay for small molecule agonists of retinoid X receptor alpha signaling (AID 588544); settings: HEK293T RXRa-UAS-bla, beta-lactamase reporter, 18 h; activation: at 76.7 µM (top of the series);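 note: 0% = DMSO basal wells and 100% = reference agonist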
Sequence of UniProt P19793 (P19793 whole entry, looked up): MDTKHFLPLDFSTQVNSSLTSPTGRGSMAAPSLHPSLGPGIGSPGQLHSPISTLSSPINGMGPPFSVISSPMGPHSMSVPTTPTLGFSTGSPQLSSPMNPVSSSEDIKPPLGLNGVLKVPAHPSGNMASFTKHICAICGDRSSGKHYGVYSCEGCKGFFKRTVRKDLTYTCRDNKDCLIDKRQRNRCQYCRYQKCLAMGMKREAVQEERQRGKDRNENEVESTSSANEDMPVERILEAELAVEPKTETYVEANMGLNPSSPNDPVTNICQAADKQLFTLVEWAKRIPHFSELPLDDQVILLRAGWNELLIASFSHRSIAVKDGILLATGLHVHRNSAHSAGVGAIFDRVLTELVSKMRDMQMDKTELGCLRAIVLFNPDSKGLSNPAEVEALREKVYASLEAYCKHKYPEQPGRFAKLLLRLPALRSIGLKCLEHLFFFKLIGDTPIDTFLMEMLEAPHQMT
Tags give direction and shape of the fitted curve or compound fluorescence and quenching.

In the case of `CC1(C)C(=O)NC(=O)N1CO`, the activation [1] is reported as inconclusive: -2.92%, the Potency [2] is reported as “inactive” and the Potency [3] is reported as “inactive”. For the same compound, the Potency [4] was inconclusive [cytotoxic, side channel, partial curve, poor fit], the Potency [5] was inconclusive [side channel, falling, full curve, poor fit] and the max response [6] was inactive: 1.33%.
For `CCCCCCCCC/C=C/CC1CC(=O)OC1=O` (stereo unspecified), the Potency [7] was inconclusive [cytotoxic, full curve, poor fit], the Potency [8] was “inactive” and the activation [9] was inconclusive: 11.3%. For the same compound, the activation [10] was inconclusive: 18.5%, the activity change, negative = inhibition [11] was inconclusive: 27.1% and the activity, negative = inhibition [2] was inconclusive: -4.21%. For the same compound, the activity change % (negative = inhibition) [4] was inactive: 2.72%, the Potency [5] was inconclusive [activator, partial curve] and the Potency [12] was “inactive”. The Potency [13] was inconclusive [inhibitor, single point].
In the case of `CC(C=O)Cc1ccc(C(C)(C)C)cc1` (stereo unspecified), the Potency [14] is reported as “inactive”, the Potency [9] is reported as inconclusive [side channel, falling, single point] and the activation [9] is reported as inactive: 8.05%. The Potency [15] was “inactive”, the Potency [16] was “inactive” and the activity change, negative = inhibition [11] was inconclusive: -15.4%. For the same compound, the Potency [2] was “inactive”, the Potency [17] was inconclusive [side channel, falling, full curve, poor fit] and the activation [17] was inactive: -3.88%. The Potency [5] was inconclusive [activator, partial curve, poor fit] and inactive, the activation [12] was inconclusive: 27.8% and the Potency [13] was inconclusive [inhibitor, single point]. The max response [18] was inactive: 9% and inactive: 0.62%.
For `CC(C)(C)c1ccc(O)c(C(C)(C)C)c1`, the activation [1] was inconclusive: 24.5%, the activation [5] was inconclusive: 11.4% and the Potency [19] was “inactive”.
For `CC(C)(C)c1n[nH]c(=O)n(N)c1=O`, the Potency [1] was inconclusive [side channel, falling, full curve, poor fit] and the Potency [5] was “inactive”.
In the case of `O=[N+]([O-])c1ccc(NCCO)c(OCCO)c1`, the activity change, negative = cytotoxicity [20] is reported as inactive: -4.17%, the Potency [9] is reported as inconclusive [side channel, falling, full curve, poor fit] and the activity change, negative = inhibition [15] is reported as inconclusive: -55.5%. The activity, negative = inhibition [2] was inconclusive: 12% and the activation [5] was inconclusive: 0.223%.
With `CCCCC(CC)COC(=O)/C=C\C(=O)OCC(CC)CCCC` (stereo unspecified) the Potency [9] was inconclusive [cytotoxic, side channel, partial curve, poor fit], the Potency [15] was “inactive” and the Potency [2] was inconclusive [inhibitor, partial curve, poor fit]. The Potency [21] was “inactive”, the Potency [17] was inconclusive [side channel, falling, full curve, poor fit] and the Potency [4] was inconclusive [side channel, falling, full curve, poor fit]. For the same compound, the Potency [5] was active: 30.6 µM.

Reference: PubChem BioAssay (NCATS)
